Laboratory results published in article PMC4336329 (PLoS ONE, 2015).
Screen size: about 310,000 compounds; about 14,000 (4.5%) showed an effect of 50% or more. Effects have a minus sign here. Some of the results follow.

Target: human ether-à-go-go-related gene (hERG) potassium channel (human, UniProt Q12809)
Assay: primary screen, population patch clamp on CHO cells stably expressing hERG
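Also: peak tail current of the secondary pulse compared with the same well before compound.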

Chain of human ether-à-go-go-related gene (hERG) potassium channel (Q12809 whole entry, looked up): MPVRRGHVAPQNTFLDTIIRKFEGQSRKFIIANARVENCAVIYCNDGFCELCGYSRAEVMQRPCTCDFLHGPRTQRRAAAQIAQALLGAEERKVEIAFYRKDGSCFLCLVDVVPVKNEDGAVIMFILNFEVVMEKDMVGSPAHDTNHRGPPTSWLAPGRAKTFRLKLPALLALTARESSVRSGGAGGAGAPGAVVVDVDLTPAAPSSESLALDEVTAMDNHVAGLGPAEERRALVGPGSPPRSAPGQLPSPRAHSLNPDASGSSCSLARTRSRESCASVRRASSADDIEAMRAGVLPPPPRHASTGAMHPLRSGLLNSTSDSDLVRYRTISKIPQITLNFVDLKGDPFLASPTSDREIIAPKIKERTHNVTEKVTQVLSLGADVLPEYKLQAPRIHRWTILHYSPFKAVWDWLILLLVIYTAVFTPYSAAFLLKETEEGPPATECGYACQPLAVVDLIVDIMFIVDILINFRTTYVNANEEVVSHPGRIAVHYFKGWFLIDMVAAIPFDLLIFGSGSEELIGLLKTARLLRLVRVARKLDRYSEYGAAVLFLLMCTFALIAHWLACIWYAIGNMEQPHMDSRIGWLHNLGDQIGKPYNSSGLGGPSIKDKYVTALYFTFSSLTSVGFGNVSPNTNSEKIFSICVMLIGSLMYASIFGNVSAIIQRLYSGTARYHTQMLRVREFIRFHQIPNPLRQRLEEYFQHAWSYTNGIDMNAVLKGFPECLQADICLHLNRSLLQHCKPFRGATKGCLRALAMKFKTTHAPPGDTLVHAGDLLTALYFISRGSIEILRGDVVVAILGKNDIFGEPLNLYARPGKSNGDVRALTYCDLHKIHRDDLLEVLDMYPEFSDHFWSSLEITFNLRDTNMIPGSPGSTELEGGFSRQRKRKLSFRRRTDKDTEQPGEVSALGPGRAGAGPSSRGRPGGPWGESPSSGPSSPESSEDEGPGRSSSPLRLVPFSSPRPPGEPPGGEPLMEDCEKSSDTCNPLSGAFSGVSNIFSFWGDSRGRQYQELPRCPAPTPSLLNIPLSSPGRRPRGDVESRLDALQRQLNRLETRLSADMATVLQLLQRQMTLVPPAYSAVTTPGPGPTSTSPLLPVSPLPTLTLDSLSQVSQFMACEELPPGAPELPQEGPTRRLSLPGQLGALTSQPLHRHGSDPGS

| Structure (SMILES) | hERG current change (%, negative = inhibition) at 10uM [%] |
| --- | --- |
| NC(=O)c1ccsc1NC(=O)COC(=O)COc1ccccc1[N+](=O)[O-] | 4.94 |
| COc1cc(-c2cc(C(=O)Nc3ccncc3)c3ccccc3n2)cc(OC)c1OC | -32.1 |
| O=C(COc1ccccc1Cl)NNC(=O)Cn1[nH]c(=O)c2ccccc2c1=O | -17.2 |
| C=CCC1(CC=C)CCCN1C(=O)CC1C(=O)NCCN1Cc1cc(OC)cc(OC)c1 (centres unmarked) | 6.89 |
| CN(C)S(=O)(=O)c1ccc(NC(=O)C2CC3C=CC2C3)cc1 (centres unmarked) | 9.32 |
| COc1cc(Br)cc2cc(C(=O)N3CCN(C(=O)c4ccco4)CC3)c(=O)oc12 | -29.3 |
| O=C(O)C1OC(Oc2c(-c3ccc(O)c(O)c3)oc3cc(O)cc(O)c3c2=O)C(O)C(O)C1O (centres unmarked) | 20.3 |
| Cc1csc(SCC(=O)Nc2ncc(Cl)c(C)c2Cl)n1 | -8.92 |
| Nc1ncnc(Sc2ccc(Cl)cc2)c1[N+](=O)[O-] | 5.68 |
| Cc1[nH]nc2c1C(c1ccc(O)cc1)C1=C(CC(C)(C)CC1=O)N2 (centres unmarked) | 20.1 |
| CC(=O)c1sc(NC(=O)c2cc3c(C)nn(-c4ccccc4)c3s2)nc1C | 18.8 |
| Cc1cc(C)n(C(=O)c2ccc(C)c(F)c2F)n1 | 3.16 |
| O=C(NCCc1ccccc1)C1CCCN(S(=O)(=O)c2cccc3nsnc23)C1 (centres unmarked) | 13.5 |
| Nc1c2c(nc3ccccc13)CCN(Cc1ccccc1)C2 | -56.1 |
| COc1ccc(Cc2nn3c(-c4ccccc4Br)nnc3s2)cc1 | -24.3 |
| Cc1cc(O)c(/C=N/Nc2cccc(Cl)c2)c(=O)o1 | 1.55 |
| O=C(CSc1nc2ccccc2c(=O)n1CC1CCCO1)NCC1CCCO1 (centres unmarked) | -23.3 |
| Cn1c(-c2ccccc2)cnc1NCc1cc2c(cc1[N+](=O)[O-])OCO2 | -55 |
| CC(C)CN(C(=O)CSc1nnc2ccccn12)c1c(N)n(CC(C)C)c(=O)[nH]c1=O | 10.1 |

| Structure (SMILES) | hERG current change (%, negative = inhibition) at 10uM [%] |
| --- | --- |
| COc1ccc2nc(Nc3nc4cc5c(cc4s3)OCCO5)sc2c1 | 1.61 |
| COc1cc(NC(=O)CSc2nc3c(C)ccc(C)c3cc2C)c(C(=O)O)cc1OC | 6.24 |
| Cc1oc(-c2ccccc2Cl)nc1CS(=O)(=O)CC(=O)NCCN1CCOCC1 | -2.44 |
| Cc1cc2c(c(Sc3ccccc3)n1)C(=O)OC2 | -6.04 |
| Cc1ccc(NC2OC(CO)C(O)C2O)cc1[N+](=O)[O-] (centres unmarked) | -0.74 |
| CC(=O)Nc1ccc(OC(F)(F)C(F)C(F)(F)F)c(NC(C)=O)c1 (centres unmarked) | -2.05 |
| Clc1ccc(-c2nc(Cc3ccccc3Cl)no2)cc1 | -0.151 |
| O=C(NC1=NCCS1)c1cccc(OC(F)F)c1 | -7.06 |
| COC(=O)c1cccc(C(=O)Nc2ccc(C)cc2Br)n1 | -6.53 |
| CC(=O)N1CN(CCCn2ccnc2)Cc2c1sc1c2CCCC1 | -5.68 |
| C=CCSc1nnc(NC(=O)c2ccc(S(=O)(=O)NCC3CCCO3)cc2)s1 (centres unmarked) | 13.5 |
| CCNC(=O)NC(=O)C(C)OC(=O)[C@H](C)NS(=O)(=O)c1c(C)c(C)cc(C)c1C (some centres unmarked) | -8.81 |
| CSc1ccc(C(=O)C2CCCN(C(=O)Cn3cnnn3)C2)cc1 (centres unmarked) | -12.8 |
| CCC(C)N1CCNCC1.Cl (centres unmarked) | 20.1 |
| COc1cc(/C=N/NC(=O)CCc2c(C)n[nH]c2C)ccc1O | 10.4 |
| O=S(=O)(N1CCCCC1)N1CCN(c2ccccc2F)CC1 | 3.85 |
| CC(=O)Nc1sc(C)c(C)c1CN1CCN(S(=O)(=O)c2ccccc2)CC1 | -40.4 |
| CS(=O)(=O)c1ccc2nc(NC(=O)c3cccc(Cl)c3)sc2c1 | 9.47 |
| N#C/C(=C\c1ccc(F)cc1)C(=O)NC1CCS(=O)(=O)C1 (centres unmarked) | 7.7 |

| Structure (SMILES) | hERG current change (%, negative = inhibition) at 10uM [%] |
| --- | --- |
| O=C(COc1ccc(S(=O)(=O)N2CCCCC2)cc1Cl)N1CCOCC1 | 16.2 |
| CN=c1scc(C)n1/N=C/c1ccc(O)cc1 | 4.97 |
| CC(C)OC(=O)Nc1ccc(-c2ccc(NC(=O)OC(C)C)cc2Cl)c(Cl)c1 | 24.5 |
| O=S(=O)(CC(O)COc1ccc(Br)cc1)c1ccccc1 (centres unmarked) | -5.07 |
| O=C(N1CCCCC1)N1CCN(S(=O)(=O)c2ccccc2)CC1 | 10.4 |
| COc1ccc(C(=O)N[C@H](C(=O)Nc2nc3c(s2)CCCC3)C(C)C)cc1 | -4.13 |
| COc1ccc(-c2nc(=S)c3c([nH]2)Oc2ccc(C)cc2C3)cc1O | 10.3 |
| COC(=O)C1=C(c2c(C)noc2C)C[C@@H]2CC[C@H]1N2C(=O)NCCOc1ccccc1Cl | -3.65 |
| COCCn1c(=O)[nH]c2cc(C(=O)NCCN3CCN(c4ccc(OC)cc4)CC3)ccc2c1=O | 10.3 |
| N/C(=N\NS(=O)(=O)c1ccccc1Cl)c1ccccn1 | 15.1 |
| COc1ccc(N(C)S(=O)(=O)c2ccc(Cl)c(C(=O)NCC(C)(C)N3CCOCC3)c2)cc1 | -41.5 |
| CCN1C(=O)N(C)[C@@H](c2ccccc2)C(C(C)=O)=C1C | 23.8 |
| Cc1nnc2c(NCCc3ccccc3)nc3ccccc3n12 | 12.1 |
| COc1ccc(OCC(O)CN(C)C(=O)C(C)Oc2ccccc2)cc1 (centres unmarked) | 6.31 |
| CCCN1CCN(C(=O)c2oc3ccccc3c2NC(=O)COc2ccc(OC)cc2)CC1 | -79.5 |
| COc1ccc(C2C(C(=O)NC(C)C)c3ccccc3C(=O)N2C)cc1OC (centres unmarked) | 12.6 |
| COc1ccc(S(=O)(=O)N2CCN(C(=O)c3oc4ccccc4c3C)CC2)cc1 | -12.9 |
| COc1ccc(OC)c(C(=O)CSc2nnc(Cc3cccs3)n2C)c1 | -22.4 |
